Data as given in the supplement of paper PMC10126150.
Sequences with one replicate were seen in a single cluster, so their values are uncertain.

System: ATP
Test: switch fluorescence ratio, 500 uM ATP over buffer (Cy3 cluster intensity, sum of 5 cycles each) (fold (ratio)); higher = stronger signal-on switching upon ATP binding; sequences stand for … in TCGTCGGCAGCGTCAGATGTGTATAAGAGACAGTTTTTTTTTTTTTTTTTTTTTTTTT…TC
Conditions: aptamer strand: ATP DNA aptamer (quencher-CACCTGGGGGAGTATTGCGGAGGAAGG + anchor), 100 nM annealed; ATP concentration: 500 uM; one replicate
In short: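 Switching-strand clusters labelled with Cy3 on a modified Illumina MiSeq flow-cell were annealed to 100 nM quencher-labelled ATP aptamer, imaged in selection buffer, and re-imaged after 15 min with 500 uM ATP at 22 °C. This was done over five cycles with NaOH stripping and re-annealing in between. The fluorescence ratio is summed target-cycle over summed buffer-cycle Cy3 intensity per cluster, averaged per switch-domain sequence, excluding clusters outside 100-1000 RFU.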
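Also: ATP exposure 15 min at 22 °C before imaging.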

| Sequence | switch fluorescence ratio |
| --- | --- |
| TACGTGCCAC | 1.1 |
| CCACAGTTAA | 1.12 |
| TAAGCGACAG | 0.97 |
| CAACCGATGG | 1.02 |
| TCCTTTAGGG | 1.03 |
| GAATCCATGT | 1.02 |
| TCTGGTCCTC | 1.01 |
| TAAACGGCGG | 1.01 |
| CGGAGTCAGC | 1.59 |
| ATTCAGCTGC | 1.02 |
| TCTGGCTGCG | 0.989 |
| TTTTAGT | 1.01 |
| GCCCCGTTGA | 1.04 |
| GGTTCTTGCC | 0.971 |
| GTAACTACGA | 1.1 |
| TTAGGCCTGG | 0.983 |
| TGCCTGATGT | 0.984 |
| AAGTGGCTGA | 0.986 |
| ATTAGGCTGT | 0.984 |
| TAGCAGCACT | 1.17 |
| GTAAATGTTA | 0.981 |
| CATTAGCAAA | 1.35 |
| CGACACCAT | 1.07 |

| Sequence | switch fluorescence ratio |
| --- | --- |
| GGCTCCTGCG | 0.926 |
| CATGCCCTGA | 1.04 |
| CGCATAATAA | 2.17 |
| AGCCACTTTT | 1.1 |
| CTGGAACTAG | 1.02 |
| AGATTATGG | 0.973 |
| TATTAGAGGC | 1.01 |
| TACAATATCA | 1.02 |
| ATAGTAAAG | 1 |
| TTTCCCTATC | 1.03 |
| CGCCTTCCAG | 1.3 |
| CAGCCCTTTT | 1.07 |
| GAATACATAA | 1.01 |
| TGCCCTATTG | 0.988 |
| TTCGAGAGGT | 0.982 |
| TAGTGGTTGC | 1.1 |
| ACGAGCTCTT | 1.03 |
| CGGATAGACC | 1.02 |
| CGCTCTTGTG | 0.991 |
| TTTTGTAAC | 0.994 |
| AAGACAATTT | 0.965 |
| CAGCTGAGGG | 1.04 |
| AAGCGGAGTT | 1.05 |

| Sequence | switch fluorescence ratio |
| --- | --- |
| TAACGCGACC | 1.58 |
| ATTGAACCCG | 1 |
| TAGTGTGGCT | 0.991 |
| TAAATCTT | 1.03 |
| ATGTCGAGCC | 1.05 |
| GCGGAGATGG | 1 |
| AAATAAGGG | 1.04 |
| AACGCGGGTA | 0.975 |
| GTATCACAGT | 0.983 |
| GAACCGCACT | 1.62 |
| ATCCTTTACG | 1.05 |
| TTTGATTAAC | 1.02 |
| TTATGCAATC | 2.88 |
| AGCCCAGGCC | 1 |
| CCGATTGCGG | 1.35 |
| ACAGTTTAG | 0.999 |
| ATCAATGAGG | 0.994 |
| ACTTTAAACG | 1.05 |
| ACATGATGAT | 1 |
| GTTATAACTG | 1.08 |
| TACCGTCATT | 1 |
| ATAGGTGTT | 1.12 |
| CGCTCGAAAG | 0.987 |

| Sequence | switch fluorescence ratio |
| --- | --- |
| TGGTCGTTCC | 1.1 |
| ACCTCCTTAT | 1.06 |
| CGGATAGGCC | 0.964 |
| ATCACGGTGT | 1.04 |
| CAGACTCTTT | 1.02 |
| CCTTTTGTTT | 1.05 |
| CTCGTTTGCC | 0.987 |
| AGGCGTAC | 1.07 |
| TGATCATAT | 0.976 |
| GGATTATGTT | 1.04 |
| TTTGACGCGG | 1 |
| TGGTGCGTGC | 0.933 |
| GGGTAAACAG | 1.01 |
| AGGGCGTTC | 1 |
| TTATGGTTGC | 0.973 |
| TACTTAGTCA | 0.998 |
| CGGCTGAAGT | 0.996 |
| CACACCAGTT | 1.12 |
| TCTCGGGTCC | 1.02 |
| TCCCTCATAT | 1.02 |
| AGTTTAATAA | 1.05 |
| CAATTTATCC | 0.986 |
| GACGGAAGTC | 1.05 |

| Sequence | switch fluorescence ratio |
| --- | --- |
| GCATTCATTT | 1.08 |
| ACACAAAT | 1.04 |
| TTGGCTCGCC | 1.02 |
| ATGTGTTCAA | 0.999 |
| GGTTTCGGAG | 1.03 |
| ACCTGGTGCA | 1.39 |
| TAGGTGCGTT | 1.03 |
| GGGATGTAGT | 0.984 |
| GACTAGTGGG | 1.02 |
| CAGACAATTT | 1.03 |
| AACTTCATTC | 1.02 |
| CCAGGGGCCG | 1.03 |
| GCAAGGTGTT | 1.32 |
| CCGGTGGGAA | 0.979 |
| TGCCAGTATA | 0.982 |
| AGGTTGATCG | 1 |
| GAGTGAGGCG | 0.971 |
| ACACGGGCAA | 0.871 |
| GGGTCGTCTT | 0.955 |
| TCGTGCATAT | 1.08 |
| CATTCTTAGC | 1.05 |
| ACGATGCCTT | 1.04 |
| GGGCCGCGAC | 1.31 |

| Sequence | switch fluorescence ratio |
| --- | --- |
| GCCTTCTAAG | 1.04 |
| ATGAATATAG | 0.985 |
| TTAGAGCTTG | 1.01 |
| CGGTCAAC | 1.04 |
| GTCGTTGCAG | 1.01 |
| GCATTATCAC | 1.1 |
| AAATAAATCG | 0.984 |
| ATGCCCAGAA | 0.933 |
| GGTACGGGCG | 0.926 |
| CTCAACGTCC | 1.19 |
| CTGCAATTGG | 4.29 |
| GCTCTCTTCA | 1.01 |
| AAAAGCGCG | 1.1 |
| GGCGAAAGTA | 1 |
| CGGGCAGACG | 1.06 |
| CACAGGATGG | 1.01 |
| TATTGACCTT | 1.03 |
| TTGATTAGCG | 1.01 |
| GAACACGCTG | 1.04 |
| CAGTCCTTGC | 1.24 |
| CCCGGATTTC | 1.1 |
| GGTGAAGTTT | 0.939 |
| CACGCTGAG | 1.22 |

| Sequence | switch fluorescence ratio |
| --- | --- |
| AGAGTTAAGC | 0.968 |
| GTTGATTCGC | 1 |
| GAAAGGTAAC | 1.02 |
| CGACAGGGTG | 1.11 |
| CTTCGGGATT | 1.03 |
| AGGGGCGAGG | 0.983 |
| CCGCGAAAGG | 1.66 |
| TGTGATTCGG | 1.04 |
| CGTCTCTAGC | 0.998 |
| GTATCGTTGT | 0.943 |
| AAAGGTCGTC | 1.01 |
| CGCTGGGTCG | 1.03 |
| CTTGGTGTCC | 1.02 |
| CCGGAGACGA | 4.4 |
| AAAACTCGTT | 0.916 |
| AGTACATCTT | 1.09 |
| GGCTTCACGG | 1.01 |
| ACTTGCGTA | 1.02 |
| ACGTAGTCTG | 1.02 |
| GGGTCCCCTA | 0.931 |
